# The whole screen tested about 39,000 compounds, of which about 220 (0.56%) showed activity. This is one part of the list.
# System: Escherichia coli K-12 BW25113
# Experiment: relative growth (OD600 normalised to plate interquartile mean) (fraction); higher = less growth inhibition, active = 0.2 or less
# Details: 50 µM; LB; incubation time: overnight (16-24 h)
# 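Also: static incubation at 37 °C against the wild-type strain, values averaged over two biological replicates.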
row,SMILES,relative growth
1,C[C@@H]1CCCCO[C@@H](CN(C)Cc2ccc(C(F)(F)F)cc2)[C@H](C)CN([C@H](C)CO)C(=O)c2cc(NC(=O)CCCN(C)C)ccc2O1,inactive: 0.977
2,C[C@H]1CN([C@@H](C)CO)S(=O)(=O)c2ccc(C#Cc3ccccc3)cc2O[C@H]1CN(C)C(=O)CN(C)C,inactive: 0.96
3,C[C@H](CO)N1C[C@H](C)[C@@H](CN(C)C(=O)C2CCCCC2)OCCCC[C@H](C)Oc2ccc(NC(=O)Nc3ccc(C(F)(F)F)cc3)cc2C1=O,inactive: 1.01
4,Cc1cc(C(=O)Nc2cccc3c2O[C@@H](CN(C)S(=O)(=O)c2ccc(F)cc2)[C@H](C)CN([C@H](C)CO)C3=O)n(C)n1,inactive: 1.01
5,C[C@H]1CCCCO[C@H](CN(C)Cc2ccncc2)[C@@H](C)CN([C@@H](C)CO)C(=O)c2cc(NC(=O)c3ccccc3)ccc2O1,inactive: 1.02
6,C[C@@H]1CN([C@H](C)CO)C(=O)c2cc(NC(=O)Cc3ccccc3)ccc2O[C@@H](C)CCCCO[C@@H]1CN(C)C(=O)c1ccccc1,inactive: 1.04
7,C[C@@H]1CCCCO[C@@H](CN(C)C(=O)Nc2cccc3ccccc23)[C@@H](C)CN([C@H](C)CO)C(=O)c2cc(NC(=O)Nc3ccc(C(F)(F)F)cc3)ccc2O1,inactive: 0.986
8,CC(C)Nc1ncccn1,inactive: 0.953
9,CCCCCCCCNC[C@@H](O)[C@H](O)[C@@H](O)[C@@H](O)CO,inactive: 0.999
10,C[C@H](CO)N1C[C@H](C)[C@H](CN(C)C(=O)NC2CCCCC2)Oc2c(NS(C)(=O)=O)cccc2C1=O,inactive: 0.992
11,C[C@H]1CN([C@@H](C)CO)C(=O)c2cc(NS(=O)(=O)c3ccc(F)cc3)ccc2O[C@@H]1CN(C)Cc1ccncc1,inactive: 0.995
12,C[C@H](CO)N1C[C@H](C)[C@@H](CN(C)C(=O)Nc2ccc(C(F)(F)F)cc2)Oc2c(NC(=O)C3CCCCC3)cccc2C1=O,inactive: 0.841
13,COc1ccc(S(=O)(=O)Nc2ccc3c(c2)C(=O)N([C@H](C)CO)C[C@H](C)[C@H](CN(C)Cc2ccc(C(F)(F)F)cc2)OCCCC[C@@H](C)O3)cc1,inactive: 1.04
14,COc1ccc(NC(=O)Nc2ccc3c(c2)C(=O)N([C@H](C)CO)C[C@H](C)[C@@H](CN(C)Cc2ccc(Oc4ccccc4)cc2)O3)cc1,inactive: 1.06
15,COCC(=O)Nc1ccc2c(c1)C(=O)N(C)C[C@H](OC)[C@@H](C)CN(C(=O)Cc1ccccn1)[C@H](C)CO2,inactive: 1.03
16,C[C@@H]1CN([C@@H](C)CO)C(=O)c2cc(NS(=O)(=O)c3cn(C)cn3)ccc2O[C@H]1CN(C)Cc1ccc(C(=O)O)cc1,inactive: 0.999
17,Cc1ccccc1S(=O)(=O)N1C[C@@H](O)COC[C@H]2O[C@H](CC(=O)NCc3ccccc3Cl)CC[C@@H]21,inactive: 1.01
18,COc1ccc(S(=O)(=O)N(C)C[C@@H]2OCCCC[C@@H](C)Oc3ccc(NC(=O)Nc4cccc5ccccc45)cc3C(=O)N([C@@H](C)CO)C[C@H]2C)cc1,inactive: 1.03
19,Cc1ccc(S(=O)(=O)Nc2ccc3c(c2)C(=O)N([C@@H](C)CO)C[C@H](C)[C@@H](CN(C)S(C)(=O)=O)OCCCC[C@H](C)O3)cc1,inactive: 0.991

row,SMILES,relative growth
1,C[C@H]1CN([C@@H](C)CO)C(=O)c2cccc(NC(=O)c3cnccn3)c2O[C@H]1CN(C)S(=O)(=O)c1ccccc1,inactive: 0.973
2,C[C@@H]1CN([C@H](C)CO)C(=O)CCCn2nncc2CO[C@@H]1CN(C)C(=O)Nc1ccc2c(c1)OCCO2,inactive: 1
3,C[C@@H]1CCCCO[C@H](CN(C)C(=O)CCC(F)(F)F)[C@@H](C)CN([C@H](C)CO)C(=O)c2cc(NC(=O)c3ccccc3)ccc2O1,inactive: 0.988
4,O=C(NC[C@@H](O)CO)[C@]1(Cc2ccccc2)N=C(c2ccc(OCCCO)cc2)O[C@@H]1c1ccccc1,inactive: 1.01
5,Cc1noc(C)c1NC(=O)N(C)C[C@H]1Oc2ccc(NC(=O)Nc3ccc(C(F)(F)F)cc3)cc2CC(=O)N([C@H](C)CO)C[C@H]1C,inactive: 0.935
6,Cc1ccc(S(=O)(=O)N(C)C[C@H]2Oc3c(NC(=O)C4CC4)cccc3C(=O)N([C@H](C)CO)C[C@H]2C)cc1,inactive: 0.988
7,C[C@H]1CCCCO[C@H](CN(C)S(=O)(=O)c2ccccc2)[C@@H](C)CN([C@@H](C)CO)C(=O)c2cc(NC(=O)Nc3ccc(F)cc3)ccc2O1,inactive: 0.992
8,COc1ccc(CN(C)C[C@H]2Oc3ccc(NS(C)(=O)=O)cc3C(=O)N([C@H](C)CO)C[C@H]2C)cc1,inactive: 0.966
9,CCOC(=O)C(=O)c1csc(NC=O)n1,inactive: 1
10,C[C@H]1CN([C@@H](C)CO)C(=O)c2cccc(NC(=O)Nc3cccc4ccccc34)c2O[C@@H]1CN(C)C(=O)NC1CCCCC1,inactive: 0.947
11,C[C@@H]1CN([C@@H](C)CO)C(=O)c2cccc(NS(=O)(=O)c3cccs3)c2O[C@H]1CN(C)Cc1ccncc1,inactive: 0.999
12,C[C@H](CO)N1C[C@H](C)[C@@H](CN(C)C(=O)Nc2ccc(C(F)(F)F)cc2)OCc2cnnn2CCCC1=O,inactive: 0.983
13,NCc1nc2c([nH]1)CCCC2,inactive: 1.01
14,CO[C@@H]1CN(C)C(=O)c2cc(NC(=O)C3CCOCC3)ccc2OC[C@@H](C)N(CC2CCOCC2)C[C@H]1C,inactive: 1.01
15,C[C@H](CO)N1C[C@H](C)[C@H](CN(C)C(=O)Nc2cccc3ccccc23)Oc2ncc(-c3cccc(C(F)(F)F)c3)cc2C1=O,inactive: 1.03
16,C[C@@H]1CN([C@@H](C)CO)C(=O)Cc2cc(NC(=O)Cc3ccccc3)ccc2O[C@@H]1CN(C)S(=O)(=O)c1cccs1,inactive: 1.05
17,CN1C(=O)c2cc(NC(=O)C3CCOCC3)ccc2OC[C@@H]2O[C@H](CC(=O)NCc3ccc4c(c3)OCO4)CC[C@@H]21,inactive: 0.981
18,CC(C)NC(=O)N(C)C[C@H]1Oc2cc(C#Cc3ccccn3)ccc2S(=O)(=O)N([C@@H](C)CO)C[C@H]1C,inactive: 1.01

# — the supplement of paper PMC9446081
